Results on 98 compounds are retold here after publication PMC6919601, “Identification of Plasmodium dipeptidyl aminopeptidase allosteric inhibitors by high throughput screening” (PLoS ONE, 2019).

Structures are written as SMILES. About 230 (0.21%) of roughly 110,000 compounds showed an effect of 50% or more. This is one part of the list.
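Further: 30 min substrate incubation versus DMSO and 10 µM JCP410 controls.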

For this test, the target named is DPAP1 (Plasmodium falciparum, UniProt Q8IIJ9). The test can be described thus: primary screen, percent inhibition; read by cleavage of a fluorogenic dipeptide substrate; higher = more effect of the substance. Also on record: species or system P. falciparum D10 trophozoite lysates; single well.
Chain of DPAP1 (Q8IIJ9 whole entry, looked up): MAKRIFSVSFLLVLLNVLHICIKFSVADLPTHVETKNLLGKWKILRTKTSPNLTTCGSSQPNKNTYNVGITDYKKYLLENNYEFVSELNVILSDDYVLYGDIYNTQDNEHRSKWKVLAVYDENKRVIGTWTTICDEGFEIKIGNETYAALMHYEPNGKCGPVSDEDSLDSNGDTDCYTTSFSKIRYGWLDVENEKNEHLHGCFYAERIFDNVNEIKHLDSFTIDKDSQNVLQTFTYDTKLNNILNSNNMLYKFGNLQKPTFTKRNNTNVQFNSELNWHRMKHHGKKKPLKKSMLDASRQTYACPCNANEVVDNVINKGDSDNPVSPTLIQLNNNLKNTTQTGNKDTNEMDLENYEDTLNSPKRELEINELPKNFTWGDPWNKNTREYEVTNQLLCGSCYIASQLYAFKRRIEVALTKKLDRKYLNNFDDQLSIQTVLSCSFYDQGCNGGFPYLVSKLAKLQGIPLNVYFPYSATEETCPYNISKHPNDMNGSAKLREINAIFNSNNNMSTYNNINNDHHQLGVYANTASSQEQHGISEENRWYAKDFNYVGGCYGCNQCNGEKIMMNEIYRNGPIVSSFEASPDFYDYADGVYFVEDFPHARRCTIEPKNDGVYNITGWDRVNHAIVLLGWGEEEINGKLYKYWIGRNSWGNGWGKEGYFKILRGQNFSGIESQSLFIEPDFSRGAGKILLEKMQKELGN
Take `Clc1ccccc1CNCc1ccc(Br)cc1`: the “% Inhibition @ 10 uM” value was 2.38%. Regarding `O=C1c2cccc3c2N(CCC3)C(=O)C1(F)c1ccccc1` (centres unmarked), the “% Inhibition @ 10 uM” value is -2.88%. The same measure for `O=C(Nc1ccc(Cl)cc1)NC(c1ccccc1)c1ccccc1`: 1.44%; for `O=C1Nc2c(c(=O)[nH]c(=O)n2Cc2ccccc2)C1(Nc1ncccn1)C(F)(F)F` (centres unmarked): 3.66%. The same measure for `O=C(NCc1ccccc1Cl)c1cc2c(s1)-c1ccccc1OC2`: -8.58%. With `NCCNC(=O)c1c(O)oc2ccccc2c1=O`, the “% Inhibition @ 10 uM” value turned out to be 0.00178%. The value for `Cc1nn(Cc2ccc(C(=O)Nc3ccc(Br)c4cccnc34)o2)c(C)c1Cl` was -1.08%; that for `COc1cc(/C=C2\C(=N)N3N=C(S(C)(=O)=O)SC3=NC2=O)ccc1OCc1ccccc1F` was -3.39%. The value for `Cc1cc(Cl)ccc1N(CC(=O)Nc1ccc2ccccc2c1)S(C)(=O)=O` was -2.88%; that for `O=C(c1ccco1)N1CCN(c2ncnc3c2nc2n3CCCCC2)CC1` was 2.75%; that for `CC/N=C(/Nc1cc(-c2ccc(OC)cc2OC)[nH]n1)SC` was -2.28%.

As for `O=C(NCCc1ccc(Cl)cc1)c1c(O)nc2c(c1O)CCCC2`, the “% Inhibition @ 10 uM” value stood at 2.8%. The same measure for `CC(C(=O)NCCCc1ccccc1)n1ccc2cc(S(=O)(=O)N3CCCC3)ccc21` (centres unmarked): -7.13%. The value for `CSc1ccc2nc(N3CCN(c4ccccc4F)CC3)cc(C)c2c1` was -5.16%; that for `NC(=O)COc1ccc(-c2noc(/C=C/c3ccccc3)n2)cc1` was -4%. The value for `COc1cc(OC)cc(C(=O)Nc2ccccc2C(N)=O)c1` was 4.11%; that for `CC(C)C[C@H](NC(C(=O)N1CCOCC1)c1ccc(-c2ccc(S(C)(=O)=O)cc2)cc1)C(=O)NCC#N` (some centres unmarked) was -4.72%; that for `COc1ccc(C2=NN(c3cc(Cl)ccc3Cl)C(c3ccc(F)cc3)C2)cc1` (centres unmarked) was 2.78%. As for `Cc1cccn2c(=O)c(/C=C(\C#N)C(=O)NCCCOC(C)C)c(Oc3ccc(Cl)cc3)nc12`, the “% Inhibition @ 10 uM” value was found to be 5.21%. The value for `COc1ccc(C(=O)OCCN2CCN(c3ncc(C(F)(F)F)cc3Cl)CC2)cc1OC` was -2.28%; that for `Cn1c(=O)c2c(nc(CN3CCCCC3)n2Cc2cccc(Cl)c2)n(C)c1=O` was 1.02%; that for `O=C(Nc1nc2nc(-c3ccccc3)cc(O)n2n1)c1cccnc1` was -4.91%. The same measure for `CCCCN1C(=O)C(NC(=O)c2ccccc2)(C(F)(F)F)C2=C1CC(C)(C)CC2=O` (centres unmarked): 1.02%; for `Cc1ccc(OCC(=O)Nc2ccccc2)c(C)c1`: 78%; for `CC1=CCC2C(=O)N(c3cccc(Cl)c3)C(=O)C2C1` (centres unmarked): 0.313%. As for `CCc1ccc(Oc2nc3ccccn3c(=O)c2/C=C(\C#N)C(=O)NCCOC)cc1`, the “% Inhibition @ 10 uM” value is on record as -0.828%. The value for `Cc1cc(/C=C2/NC(=O)N(Cc3ccccc3F)C2=O)c(C)n1-c1cccnc1` was -4.56%. The value for `Clc1nc(N2CCc3ccccc3C2)nc(N2CCc3ccccc3C2)n1` was -9.24%; that for `Nc1nonc1-n1nnc(C(=O)O)c1CSc1nc2ccccc2[nH]1` was 1.62%; that for `CC(C)(C)c1ccc(C(=O)N2CCN(c3ccc(F)cc3)CC2)cc1` was 1.05%.

With `O=S(=O)(c1ccc(-c2cc(C(F)(F)F)no2)s1)N1CCCN(Cc2ccc(F)cc2)C1`, the “% Inhibition @ 10 uM” value is recorded as -2.86%. The value for `O=C(O)c1ccc(CN2CCN(c3cccc(Cl)c3)CC2)cc1` was -6.21%; that for `O=c1oc2c(O)cccc2cc1-c1nc2ccccc2[nH]1` was -2.41%; that for `CCN(CC)c1ccc(Nc2nc(-c3ccccn3)cs2)cc1` was -6.22%. As to `Cc1ccc(C)c(NS(=O)(=O)c2c(C(C)C)cc(C(C)C)cc2C(C)C)c1`, the “% Inhibition @ 10 uM” value is given as -2.35%.

Regarding `Cc1ccc(S(=O)(=O)N(C)c2ccc(C(=O)N3CCC(C)CC3)cc2)cc1`, the “% Inhibition @ 10 uM” value is -6.38%. Consider `COc1ccc2nc(NC(=O)c3cccnc3O)sc2c1`, for which the “% Inhibition @ 10 uM” value stood at 0.163%.

With `CCN1CCN(Cc2ccc(OC)c(C)c2)CC1`, the “% Inhibition @ 10 uM” value was -3.56%.

In the case of `N#CC1=C(N)N(c2ccc(S(N)(=O)=O)cc2)C2=C(CCC2)C1(C(F)(F)F)C(F)(F)F`, the “% Inhibition @ 10 uM” value was determined as 0.803%.

Consider `c1ccc(N2CCN(Cc3csc4c3CCCC4)CC2)nc1`, for which the “% Inhibition @ 10 uM” value was found to be 3.36%. The value for `Clc1cccc(CN2CCN(c3ccccc3)CC2)c1` was -1.92%; that for `CC(C)NC(=O)C1CCC(=O)N1Cc1ccccc1Cl` (centres unmarked) was -1.79%.

For the compound `COc1ccc(/C=C2/SC(Nc3ccc(O)cc3)=NC2=O)cc1`, the “% Inhibition @ 10 uM” value was -0.865%.

`NC(=O)Cc1ccc(OCC(=O)Nc2ccccc2F)cc1`: the “% Inhibition @ 10 uM” value was -4.52%. On to `CCCNC(=O)Cn1c(SCc2ccccc2C)nc2ccncc21`, for which the “% Inhibition @ 10 uM” value was -2.37%. The same measure for `O=C1c2ccccc2C(=O)N1c1c(F)c(F)c(C(F)(F)F)c(F)c1F`: 1.8%; for `Cc1nc2ccc(S(=O)(=O)NC(C(=O)NCc3ccco3)C(C)C)cc2s1` (centres unmarked): 1.62%. The value for `CCNC(=O)C(Sc1ccccc1)c1ccccc1` (centres unmarked) was -2.87%; that for `Cc1ccc(N2CCN(S(=O)(=O)N(C)C)CC2)cc1C` was -2.28%. The same measure for `Cc1ccc(CSc2nc3ccc(C(=O)NCCCOC(C)C)cc3n2C)cc1`: -2.88%; for `O=C(O)c1cc2cc([N+](=O)[O-])ccc2cc1O`: -9.98%; for `O=C1OC(c2cccc3ccccc23)=N/C1=C\c1coc2ccccc2c1=O`: 9.08%. As to `COc1ccc(C2C(C#N)=C(N)OC3=C2C(=O)CC(C)(C)C3)cc1COc1ccc(F)cc1F` (centres unmarked), the “% Inhibition @ 10 uM” value is listed as 5.66%. The same measure for `O=C(NCCc1ccccc1Cl)c1cnn2c(C(F)F)cc(-c3ccccc3)nc12`: 4.08%; for `COCCCN1C(=O)S/C(=C/c2ccc(O)c(OC)c2)C1=O`: -1.04%. For `CC1=CC2=NC(=O)/C(=C\c3cccn3CCCOc3c(C)cccc3C)C(=N)N2O1`, the “% Inhibition @ 10 uM” value was -5.1%.

For `CCOC(=O)c1c(NC(C)=O)sc2c1CCc1ccccc1-2`, the “% Inhibition @ 10 uM” value is given as -2.15%. As to `COc1ccccc1C1CC(=O)NC(SC)=C1C#N` (centres unmarked), the “% Inhibition @ 10 uM” value is -3.19%. The same measure for `NC(CC(=O)NC(c1ccccc1)(c1ccccc1)c1ccccc1)C(=O)O` (centres unmarked): 0.343%; for `CC(C)(C)OC(=O)N1CCC(c2c(C(=O)O)cnn2-c2ccccc2Cl)CC1`: 0.446%; for `Cc1cc(OCc2noc(-c3ccc4c(c3)OCO4)n2)ccc1Cl`: -8.39%. Turning to `Cc1ccc(Cn2ccc(NC(=O)c3cc(-c4ccc5c(c4)OCO5)on3)n2)cc1`, the “% Inhibition @ 10 uM” value is on record as 0.628%. Take `Cc1nnc2c(N3CCN(Cc4ccccc4)CC3)nc3ccccc3n12`: the “% Inhibition @ 10 uM” value amounted to 6.58%. In the case of `CNC(=O)c1nnc(-c2ccc3c(c2)OCO3)o1`, the “% Inhibition @ 10 uM” value came to 1.79%. The same measure for `Cc1cc(NCCO)nc(-c2ccc(Br)cc2)n1`: 0.247%; for `Cc1ccc2c(c1)c1cccc3c1n2CCN3CCC(N)=O`: 8.22%; for `Cc1ccc2nc(-c3ccc(NC(=O)C(C)C)cc3)sc2c1`: -1.62%. For `Cc1ccc(CN(Cc2ccco2)C(=S)NCC(=O)NC(C)c2ccccc2)cc1` (centres unmarked), the “% Inhibition @ 10 uM” value was 7.47%. The same measure for `OC(c1ccc(Cl)cc1)C(c1ccccc1)N1CCCCC1` (centres unmarked): -5.59%; for `Cc1[nH]c2ccccc2c1CCNCc1ccc(F)cc1F`: -2.45%; for `Cc1nn(C)cc1NC(=O)c1cc2n(n1)C(C(F)(F)F)CC(c1ccco1)N2` (centres unmarked): 1.72%. The value for `CCOc1ccccc1/C=c1\sc2nc(=O)c(Cc3ccc(Cl)cc3)nn2c1=O` was -1.11%. The same measure for `Cc1cc(OC(CN(C)C)CN(C)C)nc2ccccc12`: 2.31%; for `COc1cccc(C2NCCc3c2[nH]c2ccccc32)c1` (centres unmarked): -3.62%. In the case of `COc1ccc(N2CC(C(=O)Nc3ccccn3)CC2=O)cc1` (centres unmarked), the “% Inhibition @ 10 uM” value is given as -8.09%. The same measure for `CC(C)Oc1ccc(C(=O)C2=C(O)C(=O)N(CCN3CCOCC3)C2c2ccc(O)cc2)cc1` (centres unmarked): -5.93%. The value for `COc1ccc2c(c1OC)C(=O)N(c1ccccc1C)C2=O` was 2.69%; that for `CCN(CC)CCn1c(C)nc2ccccc21` was -9.87%; that for `Clc1nc(NCCN2CCOCC2)nc(NCc2ccccc2)n1` was -4.24%. The value for `CC1CCc2nc3ccc(S(=O)(=O)N4CCC(C(=O)N5CCCC5)CC4)cc3c(C(=O)O)c2C1` (centres unmarked) was -4.85%; that for `CC1=C(C(=O)Nc2ccccc2C)C(c2cccc(Br)c2)n2nc(CCCO)nc2N1` (centres unmarked) was 1.08%; that for `CCOc1ccc(CC(=O)Nc2ccc(C(N)=O)cc2)cc1OCC` was 1.84%. Take `CCOC(=O)c1nnc(-c2cccnc2)o1`: the “% Inhibition @ 10 uM” value came to 0.974%. The value for `CCC1CCCCN1C(=O)Cn1nc([N+](=O)[O-])c(Br)c1C` (centres unmarked) was -6.01%; that for `Cc1ccc2c(CNCc3ccc(OC(C)C)cc3)c(C(=O)O)[nH]c2c1` was -4.46%. Regarding `CCN(CC)CCNC(C)Cc1cccc(C(F)(F)F)c1` (centres unmarked), the “% Inhibition @ 10 uM” value is listed as -4.75%. The value for `Cn1cc(CC(=O)NCc2ccc(F)cc2)c2ccccc21` was -4.76%; that for `CCOc1ccc2nc(NC(=O)c3ccc(S(=O)(=O)N(CC)CC)cc3)sc2c1` was 11.1%. The same measure for `COc1cccc(C(=O)Nc2cc3oc4ccccc4c3cc2OC)c1`: 17.2%; for `O=C(NCc1cccnc1)C1CCN(S(=O)(=O)N2CCC3(CC2)OCCO3)CC1`: -6.75%; for `OCCN(Cc1ccccc1)Cc1ccc(C(F)(F)F)cc1`: 3.04%. The value for `CCCC[C@H](NC(=O)[C@H](CC(C)C)NC(=O)OCc1ccccc1)C(=O)c1nc2ncccc2o1` was 2.87%; that for `COc1ccc(-n2c(C)c3c(C)nn4cc(-c5ccc(C)o5)cc4c3c2C)cc1` was 0.558%. Take `Cc1ccnc(NS(=O)(=O)c2ccc(NC(=O)C(C)Oc3cccc(Cl)c3)cc2)n1` (centres unmarked): the “% Inhibition @ 10 uM” value is on record as 13.9%. Turning to `CCn1c2ccccc2c2cc(CN3CCN(Cc4ccccc4)CC3)ccc21`, the “% Inhibition @ 10 uM” value is on record as -4.84%.

Regarding `COc1cc(C(CC(=O)N2CCOCC2)N2Cc3ccccc3C2=O)cc(OC)c1OC` (centres unmarked), the “% Inhibition @ 10 uM” value is given as -0.591%. Turning to `CCN(CC)C(=O)c1c(C)nn(S(=O)(=O)c2ccc(Cl)cc2)c1SC`, the “% Inhibition @ 10 uM” value came to 4.81%. The same measure for `CC(C)c1ccc(CNC(=O)c2cccc3ccccc23)cc1`: -2.5%.
